Source: article PMC4336329 (PLoS ONE, 2015)
Out of some 310,000 compounds screened, about 14,000 (4.5%) showed an effect of 50% or more. Effects have a minus sign here. The list shows a part of the results.

Target: human ether-à-go-go-related gene (hERG) potassium channel (human, UniProt Q12809)
Experiment: primary screen, population patch clamp on CHO cells stably expressing hERG
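Note: peak tail current of the secondary pulse compared with the same well before compound.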

Sequence of human ether-à-go-go-related gene (hERG) potassium channel (Q12809 whole entry, looked up): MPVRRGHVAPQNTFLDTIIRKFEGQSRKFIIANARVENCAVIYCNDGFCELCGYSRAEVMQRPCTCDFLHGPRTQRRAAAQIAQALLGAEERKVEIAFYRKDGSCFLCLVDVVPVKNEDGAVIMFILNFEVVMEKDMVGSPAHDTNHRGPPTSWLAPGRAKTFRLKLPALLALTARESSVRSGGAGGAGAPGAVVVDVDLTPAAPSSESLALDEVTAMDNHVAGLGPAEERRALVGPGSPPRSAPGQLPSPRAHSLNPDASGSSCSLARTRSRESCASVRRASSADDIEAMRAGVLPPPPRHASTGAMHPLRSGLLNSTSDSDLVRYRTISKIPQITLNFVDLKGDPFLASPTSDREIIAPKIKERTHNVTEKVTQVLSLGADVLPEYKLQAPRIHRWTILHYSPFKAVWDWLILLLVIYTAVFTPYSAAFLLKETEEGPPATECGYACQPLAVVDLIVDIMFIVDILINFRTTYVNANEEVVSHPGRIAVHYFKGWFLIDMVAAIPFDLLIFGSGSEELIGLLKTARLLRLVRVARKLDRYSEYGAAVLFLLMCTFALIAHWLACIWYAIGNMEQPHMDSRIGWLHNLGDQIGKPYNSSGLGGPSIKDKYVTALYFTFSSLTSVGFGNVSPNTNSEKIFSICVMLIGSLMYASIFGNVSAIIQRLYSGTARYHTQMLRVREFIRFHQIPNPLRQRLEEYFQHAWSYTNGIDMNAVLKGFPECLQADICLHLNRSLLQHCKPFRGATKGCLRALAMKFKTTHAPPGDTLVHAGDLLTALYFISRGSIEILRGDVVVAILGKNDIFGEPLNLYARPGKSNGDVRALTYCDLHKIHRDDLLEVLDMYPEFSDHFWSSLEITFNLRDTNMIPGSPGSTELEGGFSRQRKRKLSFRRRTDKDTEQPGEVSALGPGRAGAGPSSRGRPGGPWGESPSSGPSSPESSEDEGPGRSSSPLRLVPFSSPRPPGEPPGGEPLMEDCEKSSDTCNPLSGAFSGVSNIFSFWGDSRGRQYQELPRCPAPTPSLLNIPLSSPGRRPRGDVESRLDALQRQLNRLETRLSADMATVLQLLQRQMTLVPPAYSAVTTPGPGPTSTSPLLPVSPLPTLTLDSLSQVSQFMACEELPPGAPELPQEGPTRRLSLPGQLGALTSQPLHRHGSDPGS

Compound | hERG current change (%, negative = inhibition) at 10uM [%]
CCc1cc2c(C)ccc(C)c2nc1SCC(=O)Nc1c(C)[nH]c(=O)[nH]c1=O | 2.43
COc1ccccc1CN1CCCC(N2CCN(c3ccc(F)cc3)CC2)C1 (stereo not shown) | -56.2
Cc1cccc2cc(CN(Cc3ccc4c(c3)OCO4)Cc3nnnn3C3CCCC3)c(=O)[nH]c12 | -20.9
Cc1cc(C(=O)N/N=C2\CC(=O)c3ccccc32)c(C)n1-c1ccccc1 | 17.3
CC(=O)Nc1ccc(N/C=C/C(=O)c2ccco2)cc1 | 1.94
CC(C)(C)n1ncc2c(=O)n(Cc3ccc(Cl)c(Cl)c3)cnc21 | 0.627
CC(=O)c1sc(NC(=O)COc2ccc(C)c(C)c2)nc1C | 13.6
O=C(CCCC1=NS(=O)(=O)c2ccccc2N1)Nc1ccccc1 | -2.06
Cc1ccccc1-c1noc(CCC(=O)NC2CCCCC2)n1 | -8.36
COc1ccc(/C=N/NC(=O)c2ccc(NC(=O)c3cccc([N+](=O)[O-])c3)cc2)c(C(=O)O)c1OC | 7.45
O=C(COC(=O)c1ccc([N+](=O)[O-])o1)Nc1cccc(S(=O)(=O)N2CCCCC2)c1 | -56.6
O=C(NC1CCCCC1)Sc1ccc(Cl)cc1 | 11.3
CC1CCc2cc(F)cc3c(O)c(C(=O)NCC4CCCO4)c(=O)n1c23 (stereo not shown) | -13.4
CCN1CCN(C(=S)Nc2ccc(Cl)c(Cl)c2)CC1 | -24.5
CCOC(=O)c1c(/N=C/N(C)C)sc(/C=N/Nc2ccccc2)c1-c1ccccc1 | 2.35
COC(=O)CSc1nnc2n(C3CCCCC3)c(=O)c3c4c(sc3n12)CCCC4 | -18.5
COc1ccc(C(=O)Nc2ccc3nc(C)sc3c2)cc1OC | 8.62
O=S1(=O)CCN2C(Cc3ccc(SC(F)F)cc3)=CSC2=N1 | -20.2
O=C(c1cccc(NS(=O)(=O)c2ccccc2)c1)N1CCN(c2ccccc2)CC1 | -9.01
Cc1ccc(C(=O)N/C(=C\c2ccccc2)C(=O)NCCCn2ccnc2)cc1 | -84.8
CN(C1CCCCC1)S(=O)(=O)c1cn(C)c(=O)n(C)c1=O | 4.74
C=CCn1c(Cc2csc(N)n2)nnc1SCC(=O)Nc1ccc(C(=O)OCC)cc1 | -15.1

Compound | hERG current change (%, negative = inhibition) at 10uM [%]
CC(/C=C/c1ccccc1F)=N\NC(=O)c1ccccc1 | -15.3
O=C1CC(c2ccc(O)cc2)Oc2cc(O)ccc21 (stereo not shown) | 9.31
COc1ccc(-c2nnn(CC(=O)c3c[nH]c4ccccc34)n2)cc1OC | 5.53
COc1ccc(NC(=S)NC(=O)C2CCCCC2)cc1 | 0.986
O=C(Nc1cc(Br)ccc1O)c1cc(-c2ccc3c(c2)OCO3)on1 | -4.2
Oc1ccc(/C=N/n2c3ccccc3c3ccccc32)cc1 | -8.87
CCCCOC(=O)/C=C\C(=O)NC(N)=O | 11.6
Cc1ccc(C2(c3ccc(C)cc3)NC(=O)N(Cc3c(C)noc3C)C2=O)cc1 | -18.5
CCOc1ccc(N(C(C)=O)c2nc(C)cc(C)c2C#N)cc1 | 4.68
CC(C)Oc1ccccc1/C=N/NC(=O)c1ccc(F)cc1 | -14.8
O=C(CNS(=O)(=O)c1ccccc1)N1CCN(Cc2ccccc2)CC1 | 5.89
Cc1ccc(/C=C/C(=O)NC(=S)Nc2ccc(S(=O)(=O)Nc3cc(C)on3)cc2)cc1 | 9.42
O=C1C=C(c2cc(C(F)(F)F)cc(C(F)(F)F)c2)C[C@@H](c2ccc3c(c2)OCO3)C1 | 10.3
CC(C)Cc1nnc(NC(=O)c2cccc(S(=O)(=O)N3CCN(C)CC3)c2)s1 | -1.1
c1ccc(-c2cc(N3CCCCC3)c3ccccc3n2)cc1 | 6.1
Cc1sc2nc(CN3CCN(c4ccc(O)cc4)CC3)[nH]c(=O)c2c1C | 14.4
O=C(CSc1ccsc1[N+](=O)[O-])NCCc1ccccc1 | 2.6
COCCn1c(=NC(=O)C2COc3ccccc3O2)sc2cc(S(N)(=O)=O)ccc21 (stereo not shown) | -15
COc1ccc2ccccc2c1/C=N/NC(=O)c1ccc([N+](=O)[O-])cc1 | 24.5
O=C(C(Cl)c1ccccc1)N1CCOCC1 (stereo not shown) | 18.7
Cc1ccc(C)c(S(=O)(=O)N2CCN(C(=O)C3CCN(C(=O)c4ccc(F)cc4)CC3)CC2)c1 | -30.6
